Test results reported in a collection of fitness landscapes (doi:10.1016/j.celrep.2020.107928).
The full ranking holds about 81,000 sequences; the median of “one-hybrid fitness for binding NBS DNA” is about -0.1, and the highest 2% start at about 0.36. Some of the results follow.

B1: Caulobacter ParB omega fusion; a variant is named by its letters at X, in order, B8GW30 (parent)
chain: MESVVVGEPGMSEGRRGLGRGLSALLGEVDAAPAQAPGEQLGGSREAPIEILQRNPDQPRRTFREEDLEDLSNSIREKGVLQPILVRPSPDTAGEYQIVAGERAWRAAQRAGLKTVPIMVRELDDLAVLEIGIIENVQRADLNVLEEALSYKVLMEKFERTQENIAQTIGKSXSHVANXMRLLXLPDEVQSYLVSGELTAXHARAIAAAADPVALAKQIIEGGLSVRETEALARKAPNLSAGKSKGGRPPRVKDTDTQALESDLSSVLGLDVSIDHRGSTGTLTITYATLEQLDDLCNRLTRGI

Variants of: B1
Assay: one-hybrid fitness for binding NBS DNA (the Noc-binding site; scaled: cognate 1, non-cognate 0); higher = stronger binding
Conditions: with NBS DNA site
Procedure, shortened: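 Values were rescaled so that cognate is 1 and non-cognate is 0. Each is a fitness, the log change in a variant's read ratio to wild type from Illumina reads of plasmids before and after selection, with three replicate libraries pooled and variants under 10 reads dropped. Selection of the Caulobacter ParB libraries, four specificity codons randomised, used E. coli USO with a HIS3 reporter, site 19 bp from the promoter, on M9-minus-histidine with 0.1 mM IPTG and 5 mM 3-AT for 48 hours at 37°C.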

one-hybrid fitness for binding NBS DNA, 0.979:
QSKR

one-hybrid fitness for binding NBS DNA, 0.521:
QAKA

one-hybrid fitness for binding NBS DNA, 0.363:
QKER

one-hybrid fitness for binding NBS DNA, 0.503:
QTKG

one-hybrid fitness for binding NBS DNA, 0.276:
KRRV

one-hybrid fitness for binding NBS DNA, 0.341:
RWRR

one-hybrid fitness for binding NBS DNA, 0.205:
CRQT

one-hybrid fitness for binding NBS DNA, 0.417:
RTFT

one-hybrid fitness for binding NBS DNA, ≤ 0.2:
SRRF
GRME
HTCM
FPTY
CRNI
NYAN
CHHC
TDSS
VVEF
RSDG
APHL
RMGQ
YCSC
IPDQ
PQSH
IMPG
MAGT
LVKV
QKMD
ATKE
NAVD
YRRH
MALP
RTQK
QAAW
VARP
RVCM
LNAV
QMEG
RVSD
VVCT
CMEC
QMMA
RPEK
GWMI
PKGY
GHGM
STLD
TQMI
ACIL
RPGH
DGPY
TPYM
PVMA
ADNT
LPTF
RCSC
EYLR
SQAI
RKDL
LMIT
ESYR
RCNL
RFEF
MWHS
LTNQ
FPTH
IDGR
VHDF
EFTT
AMTF
TVNS
LALM
QSIF
WDYG
GEIR
SGVS
GGRH
PRGT
SRIS
AAGF
TQLP
RWLN
SHIC
SKFG
QTQG
SREM
TGAW
YASS
RLHM
EVCC
PRVM
VLDC
HRTV
ERLP
HAKA
RMMP
DFPN
MNSG
SAIV
QWFS
FSYR
REFQ
QNPH
CRHC
REFC
LYLC
PEGR
NCYT
MAHG
YLTT
DRSC
VGKR
QPTY
GTPY
SGLC
HPSD
SRAC
PNDV
RDID
GHES
EQPR
KRTP
NHTG
LPRL
RFVW
KEPE
HVIE
VECA
PVQL
VLRC
KSRM
SCGP
SAEA
SWLG
QYIM
RLES
PTTW
QQAK
TDCC
QLYN
YPNE
ELSR
QGTY
WLDG
VCRG
QLDD
VWRA
MRRM
EALL
TFLG
PYMY
ADKG
VRKL
AHIW
SYTM
KRAF
YLQT
ILLF
GHYF
RKTP
HHIY
RQCP
RFWP
KGTQ
RGVT
VQDS
GREG
NEHM
DMGR
DQPT
KFSY
FKQV
HGHM
RGVE
TAKG
PHGS
HNYG
PIIA
PTRD
YAIV
SKEC
NFNS
YTYC
QTFF
AQPT
HPRH
IRAE
FDKC
WDDV
QLMP
EYPG
WQTT
EPGC
EMIV
RFVR
PRIC
